Assay: soluble fraction after stress (log2 fold change); higher = more stays soluble; pooled small domains, quantitative proteomics
Details: stress: 50 degC
Method in brief: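 Pooled custom libraries of small protein domains were measured in a high-throughput format, with quantitative proteomics as the read-out. Each library was stressed at 50°C. Aggregation propensity is given as the base-two logarithm of the fold change in how much of each protein stays soluble after the stress. Higher values mean a larger share of the protein remains in solution.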

“HMAKGTVKWFNETKGYGFIAPEGGKKDVFVHITALERAGLRGLKDGQAVNFDIEAGRDGRESAINITL” and “HMAMINTVQPILVEGLSKKNNDTLFGRTENNRVVNFEGSRSLIGNFVNIKITEALSNSLRGIIQS” are within 0.2 log units of each other in “soluble fraction (log2)” value: -0.121 for the first, -0.126 for the second.

Compared with “HMDEEMLELVEMEMRELLSFYDFDGDNTPIIRGSALGALNGVPQWEDKVMELMDAVDTWIPLP”, “HMGMVGTNHRILVDGVSRKNAGHLSGRTENNRVVNFAAGEASIGDFRDVRITEALPNSLRAEVLG” is higher in “soluble fraction (log2)” value: -0.44 for the first, 0.0476 for the second.

“HMKVDQVDDAELLDLVEMEIRELLSSYDFPGDDVPIVKGSALAAVEDRDEAIGKNSIIELMSKVDEYIPAP” and “HMQPVNIEPRSPLHAQVLLDRANFSPGQIDGEVGSNQRRAVSGLQAARGLKVTGELDEETWQALQAD” are within 0.2 log units of each other in “soluble fraction (log2)” value: 0.059 for the first, 0.031 for the second.

“HMSASHYDVLNLKKTASETEIKKAYRKLAVEYHPDKVMNLGEEYQKAAKEKFQKVQEAYEQIKLERGI” and “HMVDDEELLDLVEMEVRELLDDYEFPGDDTPIIRGSALMALEDPAGPWGDKIVELFEAVDSYIP” are within 0.2 log units of each other in “soluble fraction (log2)” value: 0.136 for the first, -0.0338 for the second.

For “HMYDTKLTTQDAADYLGISRPTLEKLLEQGDIPFTRVGRHRRVMLSDLQHYAVTQHDKNMQIFDAIAA”, the “soluble fraction (log2)” value was -0.0704.
